Experimental data taken from the supplement of paper PMC4166925.
± gives the standard deviation of the averaged measurements. The full ranking holds about 33,000 sequences; the median of “E-score (dimensionless, -0.5 to 0.5)” is about -0.049, and the highest 2% start at about 0.37. This is one part of the list.

Each sequence was assayed on T1, PmTbr T-box DNA-binding domain (GST fusion) (assay: PBM E-score of 8-mer (E-score (dimensionless, -0.5 to 0.5)); Tbr is Tbrain of the sea star Patiria miniata (Pm) or the sea urchin Strongylocentrotus purpuratus (Sp); higher = stronger binding preference; most listed sequences are background and not binding sites). Details: the construct has about 5 more residues each side.
T1 sequence: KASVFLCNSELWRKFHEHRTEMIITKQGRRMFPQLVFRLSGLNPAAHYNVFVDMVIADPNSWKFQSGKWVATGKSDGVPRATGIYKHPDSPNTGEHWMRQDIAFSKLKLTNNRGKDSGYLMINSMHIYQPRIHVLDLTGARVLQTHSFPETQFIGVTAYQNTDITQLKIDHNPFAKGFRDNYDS
Method in brief: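 Primer extension turned Universal Agilent oligonucleotide arrays double-stranded. They were incubated with 200 nM protein in PBS (pH 7.5); the protein was a GST-fused Tbr T-box DNA-binding domain expressed in BL21 E. coli at 20 °C and purified on glutathione. Every ungapped 8-mer was scored from the scanned, quantified probe intensities, and the Universal PBM Analysis Suite gave each an enrichment E-score averaged over duplicate arrays.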

Point of comparison: CGACATAG, “PBM E-score of 8-mer” value -0.00473 ± 0.032. Against it:
- TGGCATAA — lower, -0.0902 ± 0.022
- GGGGCGAC — higher, 0.114 ± 0.026
- CGTACGCA — within error, -0.0213 ± 0.11
- TCCTGCAA — lower, -0.0964 ± 0.0022
- CTGGAGAC — lower, -0.0746 ± 0.0036
- TGACTGCA — higher, 0.129 ± 0.067
- AAAGGACG — lower, -0.189 ± 0.01
- AAAAATTG — within error, -0.0785 ± 0.052
- TGCATCAA — within error, -0.101 ± 0.07
- ATATAAAG — within error, -0.0621 ± 0.091
- GGCGCATA — lower, -0.116 ± 0.044
- CATGAGAC — lower, -0.161 ± 0.036
- CTCTGAAG — lower, -0.199 ± 0.0073
- CAAGACCG — lower, -0.0871 ± 0.017
- ACTGCCTC — lower, -0.266 ± 0.036
- TGGCCTAA — lower, -0.229 ± 0.046
- AACCGTCT — within error, 0.0228 ± 0.024
- ATCATCCA — lower, -0.132 ± 0.073
- CACATCGC — higher, 0.29 ± 0.046
- AAAACGTC — within error, 0.0301 ± 0.031
- GTCAAAAC — within error, 0.0767 ± 0.086
- GATAGTAA — within error, 0.0029 ± 0.023
- TATGTACA — lower, -0.0841 ± 0.027
- AAAGCCAC — lower, -0.141 ± 0.021
- AGGCCCGC — within error, -0.121 ± 0.11
- CCCACTAG — within error, -0.0657 ± 0.029
- GTGAGCTA — within error, 0.0254 ± 0.033
- GACCCGAC — higher, 0.0714 ± 0.042
- TATCATGA — within error, 0.0189 ± 0.11
- ACCTAGAA — higher, 0.0865 ± 0.04
- ACCTTATA — higher, 0.221 ± 0.084
- CCAAACGG — lower, -0.1 ± 0.012
- GCCTTCCA — lower, -0.168 ± 0.011
- ATTTATAC — lower, -0.181 ± 0.089
- AATTGGCC — higher, 0.0351 ± 0.0062
- AGCCGGAC — lower, -0.302 ± 0.11
- CGCAGGTA — higher, 0.0836 ± 0.0033
- GGGGAGAA — lower, -0.195 ± 0.011
- CGCCCCCC — lower, -0.251 ± 0.0097
- CCGGTTAA — lower, -0.11 ± 0.047
- CGTTACTC — within error, -0.0274 ± 0.037
- GTAAAGTA — lower, -0.119 ± 0.051
- CCAATGTA — within error, -0.0596 ± 0.1
- GCACGACC — lower, -0.0869 ± 0.0098
- CAAGTGTC — higher, 0.38 ± 0.031
- AACCAGAG — lower, -0.205 ± 0.022
- ATTCCCTC — lower, -0.207 ± 0.063
- AAGCGGGT — higher, 0.213 ± 0.05
- CCTTAAGA — lower, -0.0828 ± 0.015
- GAACAGAA — lower, -0.117 ± 0.024
- ATATAGAG — lower, -0.138 ± 0.013
- ACCTCCTA — within error, 0.052 ± 0.04
- CAGAATCG — within error, -0.0163 ± 0.05
- GCAGGATA — lower, -0.214 ± 0.12
- AGTTACAC — higher, 0.172 ± 0.0044
- AGTTGGAT — within error, -0.0575 ± 0.024
- CGACATAC — within error, 0.0349 ± 0.023
- GACGGCAC — within error, -0.0253 ± 0.12
- TCAACAGA — within error, -0.168 ± 0.18
- CGCAGTGC — within error, 0.00664 ± 0.05
- AGCGAGAA — higher, 0.253 ± 0.024
- ACGTATCG — within error, -0.00463 ± 0.016
- ACGTGCTC — within error, -0.113 ± 0.097
- ACGGCTCA — within error, -0.0619 ± 0.026
- ATACTAAC — lower, -0.21559 ± 0.00021
- CAGAAGCA — lower, -0.143 ± 0.023
- ACGTACTG — within error, -0.0937 ± 0.083
- CCCGGGCG — higher, 0.0891 ± 0.047
- CACGTAGG — higher, 0.0965 ± 0.0079
- CGGAATTC — lower, -0.252 ± 0.017
- CTTATTAC — lower, -0.0798 ± 0.01
- ACCGTGCC — within error, 0.0384 ± 0.033
- GATCACCC — within error, -0.0521 ± 0.077
- ACTGCTGG — lower, -0.191 ± 0.0095
- CGTGCACC — lower, -0.048 ± 0.0088
- ACCTACTG — within error, 0.0087 ± 0.021
- CTGCGAGA — higher, 0.212 ± 0.035
- ACAATTCA — higher, 0.179 ± 0.031
- ACACCTGC — higher, 0.461 ± 0.017
- ATGTATTC — lower, -0.214 ± 0.036
- TCCTGTAA — lower, -0.12754 ± 5.7e-05
- CTCGGCCA — lower, -0.191 ± 0.021
- AAAGTTTG — within error, -0.0534 ± 0.087
- ACGAGTAA — lower, -0.0778 ± 0.013
- GCTCAGTA — lower, -0.0871 ± 0.027
